According to the supplement of paper PMC11417369:
The list shows a part of the results.

test system: PF3D7_0420300 AP2 domain 1 (GST-tagged); assay: gcPBM binding intensity (ln(normalized median fluorescence intensity)); higher = stronger DNA binding
Method in brief: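 Probes on an Agilent 4 × 180k array were primer-extended, double-stranded and 36 bp long, taken from intergenic genomic regions, with negative controls added. GST-tagged P. falciparum DNA-binding domains from E. coli, about 25 μg on average, were applied to the array for 1 h in 1× PBS containing 1% milk, 0.2 mg/ml BSA, 0.5% salmon testes DNA and 0.03% Triton X-100. Binding intensity, obtained after Alexa488 anti-GST antibody detection and a 488 nm scan, is the highest Masliner-normalised natural-log median intensity across replicate spots of either probe orientation.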

| Sequence | gcPBM binding intensity (ln) |
| --- | --- |
| TATAAATATTATAATTGTACATATTATAAAAATTTT [XGTACX_site2719] | 9.05 |
| ACAAATAAAAAAATTACACACATATAAAATATAGAT [CACACA_site6756] | 9.82 |
| TATGAGAACAAACATTGTACAATAAAAAGTAGATAT [XGTACX_site920] | 9.71 |
| AATACATGAACTTAAAGTACTAAAAAAAAAATAATA [XGTACX_site1956] | 9.27 |
| AGGAAAATAATTAAAGCATGCTCATTATGAAATATA [TGCATGCA_site855] | 9.19 |
| TCTTACACTAATAAATGTACATACAAAAAATCTATT [XGTACX_site1379] | 9.09 |
| AATTTGAATATTTGATGTACAAAGTTTTTTAATGTT [XGTACX_site3249] | 9.17 |
| TACCCACTAAAATACACACACACACCCACATATATA [CACACA_site6141] | 10.2 |
| GTACCAACAGCACTACTTCTCGCCATTTTCTTGTAG [XGTACX_negctrl_site97] | 9.66 |
| GAGAGGATAGTTCACAGTACCCAGTAACTCTACGGA [XGTACX_site4876] | 9.17 |
| ATAAATATAACATATTGTACCCTTAAAAAGGAACAA [XGTACX_site352] | 9 |
| AAATGTATAATTTTTTAATACACTTATTTAAAATAA [CACACA_negctrl_site797] | 8.81 |
| CTCAAATAACTTTTTACACACATTATTTGAAATAAG [CACACA_site6722] | 9.41 |
| ATATGAATGATCGTACGTACTTACATATTTATAAAG [XGTACX_site8041] | 9.19 |
| CAGAATACATACATTACACACAAATTTAAGTATATA [CACACA_site1781] | 9.71 |
| AAGTTCAAAATAAATGGTACAGAAGTATATATATCA [XGTACX_site174] | 9.46 |
| TAAAAAAAGAGATATTGTACACAAAAAAATTTTACT [XGTACX_site1342] | 9.38 |
| TAGAAAAAAAAATACATACACACAATATATTTATTT [CACACA_site3123] | 9.63 |
| TATATATTTGTGAAAATATTAAAATAAATAAATAAA [CACACA_negctrl_site295] | 8.99 |
| AAAATCTAGGTATTTATACACACTAATATAATATAC [CACACA_site8108] | 9.33 |
| CATATAAGACAAAAGGTGCAATTTTAATGCTTTTAT [GTGCAC_site9432] | 9.31 |
| AACCCTTTTGATTTTTCTTTTTTTTTTTTTTTAAAT [CACACA_negctrl_site1667] | 9.28 |

| Sequence | gcPBM binding intensity (ln) |
| --- | --- |
| ACAGTTTGTCTGAGTAGTACATAAATACTTGAAAGG [XGTACX_site7792] | 9.07 |
| AGAAGGATATTATGAAGTACACATATTGTATATGGT [XGTACX_site7503] | 9.3 |
| TAGTAAAATGGAACACGTACATATATCTATGTATAA [XGTACX_site6103] | 9.38 |
| CCATATATAATGACATGTACTCAAAAAAAAAAAAAA [XGTACX_site685] | 8.94 |
| TTTCTCTTTTTTTGGGGTACAACCAATCCTATAATA [XGTACX_site297] | 9.02 |
| ATACATATATATATATGTACATATATTTATATTTAT [XGTACX_site3155] | 9.21 |
| TTTTTAAAAAAAAATAGAGAGTCAAAGTATGTGGCG [CACACA_negctrl_site194] | 9.32 |
| TTTCAAGGATTTAATTTATGGAAACCTTCTTCATTT [GTGCAC_negctrl_site504] | 8.89 |
| TAATTCAAACGTGTATGTATATTACTCGAAGAAATA [CACACA_negctrl_site1779] | 9.03 |
| GGACGTATTAAAAGGCGTACACTAAATATTTTATGT [XGTACX_site146] | 9.19 |
| TAATATTTATATAATTGTACTTTGTTTGTAAATCCA [XGTACX_site7292] | 9.1 |
| ATTATAATTTTGTAAAGTACATATTATTATATATTA [XGTACX_site7191] | 8.98 |
| AAGATAATTACGCACACACACACACGCCCACAACTA [CACACA_site7255] | 10.2 |
| TATTTATATAATCCTATAATATTACTACTATCTTTA [GTGCAC_negctrl_site342] | 9.19 |
| AAGGTAAAATATAAGTGTACTTTTTCTTAATCTTCG [XGTACX_site514] | 9.16 |
| ATATATAATATAATATGTACATATAATCAATCCTGT [XGTACX_site8694] | 9.42 |
| ATTTAGTATTCGAAACGTACACATATATATATATAT [XGTACX_site3910] | 9.33 |
| ATATTTTTTTTCTTCACACACATGAGTTATAAATAA [CACACA_site7498] | 9.59 |
| AATGAAACAATACCCAGTAAAAAAAAAAAATAAATA [TGCATGCA_negctrl_site205] | 9.65 |
| TGTAATCTGGAGAAGAGTACACAGTATCTGGTAGCT [XGTACX_site4935] | 9.08 |
| ATATCTATAATAAACACACAAATAGATATAACATAT [CACACA_site7702] | 9.85 |
| AAAAAAAAATTAAAAACACACATATATATATATATA [CACACA_site1580] | 9.23 |

| Sequence | gcPBM binding intensity (ln) |
| --- | --- |
| TATATATATATATATGTGCACATTTATTGCCTTTGC | 9.18 |
| TAAGTATATTTCTGCACACAAAAAAAAAAACCAAAA [CACACA_site4056] | 9.56 |
| AAAATTTAATATGAATGTACATAAAAAAAAAAAAAA [XGTACX_site6719] | 9.11 |
| ATACACAAATGCATACGTACATATATATATATATAT [XGTACX_site3504] | 9.35 |
| CATATAAGAATCTTCTGTACTTATAAGAAAAGACAT [XGTACX_site8135] | 9.02 |
| ATGTAATATGTTCATGCATGTAAAATTACATTTAGA [TGCATGCA_site852] | 9.12 |
| AAAAAAAAAAAAACAACACACAATGTTTTATTTTAC [CACACA_site1613] | 9.26 |
| TAAAACAAAATAACATGTACAAAAAAAAAAAAAAAA [XGTACX_site2915] | 8.92 |
| GTACATATAAATATTACACACATTTTCATTTTTAAC [CACACA_site1986] | 9.56 |
| AAATCGAACAAATTATGTACTAAAAAAAAAATTTAT [XGTACX_site6399] | 9.07 |
| ATCTTTCGAACATGTACACACAGAAAAAAAAAAAAA [CACACA_site5393] | 9.44 |
| TTATATGCATCCAAAAAGGAATGTTTTTAGAGAATC [CACACA_negctrl_site1062] | 8.88 |
| GTGTAGGCAAAAAGTTGTACGCCTAAAATCTATATA [XGTACX_site8912] | 9.07 |
| TAAAAAGTATATGGTCGTACACTTTTGATTAATACA [XGTACX_site7804] | 9.18 |
| TGTATAGGTACAATAATTATAGAGTAATTGACATTA [GTGCAC_negctrl_site183] | 9.1 |
| ACTCTCTTATATTAAACACACATATATATATGTATA [CACACA_site2703] | 9.53 |
| TCAAACAAAAAAGAAACACACACTAATTAAATTTTC [CACACA_site1101] | 9.69 |
| AATAATTTGAAGGTGATAGTATTACATGGGAAATCA [CACACA_negctrl_site301] | 9.32 |
| TTTAATTAATAATAATATAAATTGTTCTTTTTTTTT [GTGCAC_negctrl_site176] | 8.85 |
| CATATTTATAAATATAAACACACAACATTATATGCA [CACACA_site9065] | 9.54 |
| GCAAAATAAAGAAGCACACAAAAATGAAATATATAT [CACACA_site3651] | 9.59 |
| TATACGTAATAATATGCACACAAATAAACTTTATAA [CACACA_site9166] | 9.5 |

| Sequence | gcPBM binding intensity (ln) |
| --- | --- |
| ATTTATATATATCATACACACTAATATGTATATTAT [CACACA_site5816] | 9.42 |
| ACTAGTAAATTTATATGTACATATATATATATATAG [XGTACX_site2502] | 9.23 |
| TCTTGGTATATTCAATATATGATTTATATAATTCAA [CACACA_negctrl_site818] | 9.16 |
| AAAAAAAATACATACATACACACATATATATATATA [CACACA_site912] | 9.43 |
| TTATTTTTTTCAACAAGTACTAATACAAAATAAAAC [XGTACX_site6460] | 9.13 |
| TTGTATTATTAAATTATAAAACCTATAATTATGGAT [GTGCAC_negctrl_site340] | 9.04 |
| GATTAAATCGATAATACACACTAAATGTAAAACATT [CACACA_site4248] | 9.42 |
| TGATAACTAAATACATGTACAAATTAAAAAGAAAAA [XGTACX_site3080] | 9.2 |
| TAATGATTATATGACTGTACATTTGTAGGTATAATT [XGTACX_site3373] | 9.18 |
| AGCATATATTAAACATGTACATAAATATATTATATA [XGTACX_site1451] | 9.25 |
| GAATGAATGATAAATTTTTTTTTCTTTTTTTTTTTG [CACACA_negctrl_site333] | 8.83 |
| TGTTATATATATACAAACATACACATTTATAAACAA [TGCATGCA_negctrl_site235] | 9.48 |
| AAAAAAAGAAAAAAAACACACACAAATATAAATAAA [CACACA_site8309] | 10 |
| GTTCAAATTCTTATACCTTTTTATTGAGCCATAATA [CACACA_negctrl_site210] | 9.25 |
| TATTAATTTCTTTTTTCTCATCACTTTCAAAATGAA [CACACA_negctrl_site1055] | 8.89 |
| TTATGATCATTTATATGTACACATAATTTTTGTGCT [XGTACX_site5568] | 9.23 |
| AACACCAAACAAAGGTGTACATATAGGAAAAAATCT [XGTACX_site1006] | 9.38 |
| TACACGCAGAAACACACACACACACCCATATATATA [CACACA_site637] | 10.3 |
| TATCACATATTATGATGTACAAAGATTCTGACTAAT [XGTACX_site2770] | 9.12 |
| AGAGGGGAAAACATGATGCACTAGTATAACCAAGAA | 9.55 |
| TAGATATGTCTAAAAAGTACTTTCTATAACAATTCT [XGTACX_site6678] | 9.01 |
| TCATATTATTATATATGTACATACCAATATATTATA [XGTACX_site2988] | 9.1 |
